{"source": "paper PMC12040169", "about": "(PLOS Biology, 2025)", "note": "This is one part of the list."}
{"tested_on": "T1, C. trachomatis L2/434/Bu expressing GFP (CTL2-GFP)", "T1 construct": "L2/434/Bu GFP intracellular growth in HeLa cells", "parameters": "species or system HeLa; C. trachomatis total inclusion area by high-content imaging, normalised to DMSO", "settings": "total inclusion area; 28.5 h, 10 µM; inhibitor", "summary_of_the_method": "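High-content imaging followed the bulk GFP/resorufin measurement: fixed, Hoechst-stained cells were scored for GFP inclusions and host nuclei per well. Total inclusion area and count served as growth proxies, nuclei number as the viability proxy. MIC calculation matched the bulk assay.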"}
{"compound": "COc1ccc([C@@]23CCC(N)C[C@@H]2N(C)CC3)cc1OC", "note": "(stereo partly shown) [CBK003576]", "% of control remaining": 62.0546}
{"compound": "CCOC(=O)NC(Nc1nc2ccccc2s1)(C(F)(F)F)C(F)(F)F", "note": "[CBK008913]", "% of control remaining": 113.129}
{"compound": "O=C(O)C1(Oc2ccc3ncccc3c2)CCN(Cc2ccoc2)CC1", "note": "[CBK307598]", "% of control remaining": 78.6442}
{"compound": "OCCCNC(=S)NCCc1ccccc1", "note": "[CBK264869]", "% of control remaining": 109.761}
{"compound": "CN(C)C(=O)CN1C(=O)N2CCN=C2c2ccccc21", "note": "[CBK283961]", "% of control remaining": 94.3099}
{"compound": "CCOC(=O)c1c(/N=C/c2cc(I)cc(I)c2O)sc2c1CCN(Cc1ccccc1)C2", "note": "[CBK262246]", "% of control remaining": 72.223}
{"compound": "O=S(=O)(Nc1nnc(C(F)(F)F)s1)c1ccc(Br)cc1", "note": "[CBK200047]", "% of control remaining": 86.5097}
{"compound": "O=C(Cc1csc(-c2ccc(Cl)cc2)n1)NCCN1CCCC1", "note": "[CBK107306]", "% of control remaining": 108.106}
{"compound": "CCCCn1c(SCC(O)COCc2ccc(OC)c(OC)c2)n[nH]c1=O", "note": "(stereo not shown) [CBK296653]", "% of control remaining": 98.1567}
{"compound": "O=C(Cn1ccnc1)Nc1ccccc1Oc1ccc(F)cc1", "note": "[CBK281455]", "% of control remaining": 101.36}
{"compound": "CCC1CCC2(CC1)NC(=O)N(CC(=O)Nc1nccs1)C2=O", "note": "(stereo not shown) [CBK305936]", "% of control remaining": 60.1839}
{"compound": "O=C(COc1ccc2ccccc2c1)N1CCN(S(=O)(=O)c2ccccc2[N+](=O)[O-])CC1", "note": "[CBK264271]", "% of control remaining": 113.295}
{"compound": "COc1ccccc1CCCN1CCC2(C1)NCCc1c2[nH]c2ccccc12", "note": "(stereo not shown) [CBK040257]", "% of control remaining": 129.166}
{"compound": "CCCOc1ccc(C(=O)N2CCN(c3ccccc3)CC2)cc1", "note": "[CBK304327]", "% of control remaining": 69.6443}
{"compound": "COc1ccc2[nH]c3c(c2c1)CCN[C@]31CCN(CCOc2ccc(F)cc2)C1", "note": "[CBK089876T]", "% of control remaining": 43.8304}
{"compound": "COc1cc(CN2CCC(C(=O)c3ccc(F)cc3)CC2)cc(OC)c1OC", "note": "[CBK149112]", "% of control remaining": 89.02}
{"compound": "CN1CCN(CCC(=O)N2CCN(C(=O)c3ccco3)CC2)CC1", "note": "[CBK144481]", "% of control remaining": 86.6236}
{"compound": "O=C1N=C(NC2CCCCCC2)SC1CC(=O)N(Cc1ccccc1)c1ccccc1", "note": "(stereo not shown) [CBK067394]", "% of control remaining": 59.0859}
{"compound": "O=C1c2ccc3c4c(ccc(c24)C(=O)N1c1ccncc1)C(=O)N(c1ccncc1)C3=O", "note": "[CBK261390]", "% of control remaining": 60.6101}
{"compound": "Cc1noc(C)c1NC(=O)c1nc2ccccc2[nH]1", "note": "[CBK200315]", "% of control remaining": 111.527}
{"compound": "Cn1ccnc1CN1C(=O)CO[C@H]2CN(Cc3ccc4c(c3)OCO4)C[C@H]21", "note": "[CBK289665]", "% of control remaining": 125.694}
{"compound": "NC(=O)CSc1ccccc1", "note": "[CBK010649]", "% of control remaining": 57.9963}
